Assay results: PubChem BioAssay AID493208 (National Center for Advancing Translational Sciences (NCATS), 2011)
The whole screen tested about 44,000 compounds, of which about 340 (0.77%) were called active. About 5% were inconclusive and are not listed. Calls follow the shape of the dose curve; as a rule, active = well fitted inhibition curve with a large enough effect; inconclusive = small, poorly fitted or top-dose-only effect; inactive = flat fitted curve, though single readings scatter. The list shows a part of the results.

experiment: Acumen qHTS Assay for Inhibitors of the mTORC1 Signaling Pathway in MEF (Tsc2-/-, p53-/-) Cells: Sytravon; conditions: phospho-rpS6 immunofluorescence/PI, 24 h; series mostly up to 38.3 µM; activity change, negative = inhibition: at the top concentration;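 also: plate controls were DMSO for no effect and rapamycin for full effect; nearly all actives have a fitted effect of over 50% in size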
Outline: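 Read-out: phospho-S6 Alexa-488 intensity over PI intensity per well, scored as % active cells using thresholds from rapamycin (7.5 nM) and DMSO controls. Tsc2-/-, p53-/- MEFs exposed to compound for 24 h; PI cell count recorded as viability.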

Activity change, negative = inhibition, inactive:
COc1ccc2nc3sc(C(=O)Nc4ccccc4F)cc3cc2c1 -14.4%
CCN(CC)S(=O)(=O)c1ccc(NC(=O)[C@H](CSCc2ccccc2)N2Cc3ccccc3C2=O)cc1 -8.2%
O=C(c1ccco1)N(Cc1cccnc1)c1nc2ccc(F)cc2s1 -0.661%
CCc1ccc(C2C(C(=O)Nc3ccccc3)=C(C)Nc3c(C(=O)Nc4ccc(C)cc4)cnn32)cc1 (stereo unspecified) 2.24%
COc1cc(OC)cc(-c2nc3n(n2)C(c2ccccc2F)C(C(=O)Nc2cccnc2)=C(C)N3)c1 (stereo unspecified) -13.9%
CCc1ccc(S(=O)(=O)c2cn(C)c3cc(N4CCCCC4C)c(F)cc3c2=O)cc1 (stereo unspecified) -0.706%
Cc1cc(C)cc(NC(=O)C2CCCN(c3nnc(C)c4c(C)n(-c5ccccc5)nc34)C2)c1 (stereo unspecified) -6.32%
CCOC(=O)Cn1c(=O)oc2cc(S(=O)(=O)N3CCN(c4ccc(Cl)cc4)CC3)ccc21 -10.5%
O=C(Nc1ccc(C(F)(F)F)cc1)C1CCC(CNS(=O)(=O)c2cccc3nsnc23)CC1 (stereo unspecified) -7.74%
CCOC(=O)C1CCN(C(c2ccccc2)c2c(O)cc(C)n(Cc3ccco3)c2=O)CC1 (stereo unspecified) 7.88%
COc1ccc(OCC(=O)Nc2nnc(S(=O)(=O)N3CCCCCC3)s2)cc1 -5.13%
CCc1c(C)c2ccc3c(c2oc1=O)CN(Cc1ccccc1)CO3 -3.37%
O=C(CSc1nccn1Cc1ccco1)Nc1cccc(F)c1 -17.6%
Cc1ccc(-n2c(CCC(=O)O)ccc2-c2cccs2)cc1C -1.31%
COc1cc(C2CC(=O)Nc3c2c(=O)[nH]c2nc4ccccc4n32)ccc1O (stereo unspecified) -4.86%
CCC(C)NC(=O)c1cc2c(Cl)nc3ccc(C)cc3c2s1 (stereo unspecified) 2.62%
CC1(C)C(=O)N(CC(=O)Nc2ccc(Cl)cc2)c2ccccc21 -8.83%
COc1ccc(-c2nn3c(-c4ccc(OC)cc4)nnc3c3ccccc23)cc1 20.6%
Cc1ccc2c(c1)cc(C(=O)Nc1ccccc1C)n2C -15.2%
Cc1ccc(NC(=O)Cn2c(=O)n(Cc3ccccc3)c(=O)c3c(C)c(C)sc32)c(C)c1 3.05%
CCC(Cc1ccccc1)NC(=O)c1ccc2nc(N3CCC(C)CC3)sc2c1 (stereo unspecified) 1.38%
CCOC(=O)c1ccc(-n2c(N)c(C(=O)OC)c3nc4ccccc4nc32)cc1 1.27%
CCc1ccccc1NC(=O)C1=CC(c2ccc(OC)c(OC)c2)=NS(=O)(=O)N1C 1.84%
Cc1cccc(C)c1OCC(=O)NCC1(N2CCOCC2)CCCCC1 -7.72%
CC1CCCN(c2csc3ccc(F)cc3c2=O)C1 (stereo unspecified) 4.28%
COc1ccc(OC(=O)c2nc(SCc3ccc(C)cc3)ncc2Cl)cc1 1.3%
O=C(CN1C(=O)COc2ccc(S(=O)(=O)N3CCCCC3)cc21)NCc1ccc(F)cc1 -0.685%
Cc1ccc(-c2nc(C)c(CCNC(=O)C(=O)Nc3ccc4c(c3)OCCO4)s2)cc1 -5.86%
CCCOc1ccc(C(=O)Nc2cccc(-c3nc4ccccc4[nH]3)c2)cc1 -16.3%
COc1ccc(-n2nc3ccc(NC(=O)c4cc5ccccc5o4)cc3n2)cc1Cl 7.71%
CCOc1ccc(CNC(=O)C2CCCN(c3nc4c(C)cc(C)cc4s3)C2)cc1 (stereo unspecified) -3.03%
COc1ccccc1-c1nc(S(=O)(=O)c2ccc(Cl)cc2)c(N2CCCCCC2)o1 2.52%
CCC(CC)C(=O)Nc1cccc(-c2nc3cccnc3s2)c1C 6.89%
CC1(C)O[C@H]2[C@@H](O1)[C@@H](C(=O)Nc1ccccc1O)O[C@@H]1OC(C)(C)O[C@@H]12 -7.73%
CCc1ccc(-c2nn(CC(=O)NC3CCCC3)c3c2cnc2ccc(C)cc23)cc1 -5.62%
CCOc1cc(C2C(C(=O)OC)=C(C)NC3=C2C(=O)c2ccccc23)ccc1O (stereo unspecified) 0.672%
O=C(Nc1ccc(N2CCC(N3CCCCC3)CC2)c(C(=O)O)c1)c1ccc(Br)cc1 0.67%
Cc1cccc(/C=C/c2onc(C)c2S(=O)(=O)N2CCC(C(=O)N3CCC(C)CC3)CC2)c1 -2.51%
Cc1ccc(C(C)C)c(OCC(=O)Nc2c(C(=O)c3ccccc3)oc3ccccc23)c1 0.0823%
Cc1ccc(NC(=O)c2sc3ccccc3c2Cl)cc1 -11.3%
Cc1ccc(CN2C(=O)c3ccccc3C2C(=O)NC2CCCCCC2)cc1 (stereo unspecified) -17.4%
Cc1cc(Nc2cccc(C(F)(F)F)c2)nc2ccc(NC(=O)c3ccc(N(C)C)cc3)cc12 4.02%
Cc1cc(O)c(C(c2ccc(F)cc2)N2CCCCC2)c(=O)n1Cc1ccco1 (stereo unspecified) 1.85%
CCc1ccc(-n2nc(C)c3c(C(=O)Nc4cccc(C(F)(F)F)c4)cc(C)nc32)cc1 -3.58%
O=C(Nc1cccc(C(=O)N2CCCCC2)c1)c1nsc2ccccc12 1.31%
CCOc1ccccc1NC(=O)c1c(C)cc(C)nc1SCC(=O)c1cccc(OC)c1 -11.2%
COc1ccc(CNC(=O)CCn2nc(C)c3c(C)n(-c4ccccc4)nc3c2=O)cc1OC 0.469%
Cc1ccc(NC(=O)CCCn2nc(C)c3c(C)n(-c4ccccc4)nc3c2=O)cc1Cl -7.31%
O=C(CN1CCN(c2ccc(Cl)cc2)CC1)Nc1ccc(F)cc1F 1.88%
Cc1cccn2c(=O)c(/C=C(\C#N)c3nc4ccccc4n3C)c(Oc3ccc(Br)cc3)nc12 -20%
CCOc1ccc(N(CC(=O)Nc2ccc(F)cc2F)S(=O)(=O)c2c(C)[nH]c(=O)[nH]c2=O)cc1 -2.67%
COc1ccc(CNC(=O)C(=O)NCC(c2cccs2)S(=O)(=O)c2ccc(F)cc2)cc1 (stereo unspecified) -0.41%
COc1ccc(CN(CCC(c2ccc3c(c2)OCO3)c2ccccc2OC)C(C)=O)cc1 (stereo unspecified) 1.62%
CCOCCCn1c(=N)c(S(=O)(=O)c2ccc(C)cc2)cc2c(=O)n3cccc(C)c3nc21 6.39%
Cc1ccc(NC(=O)c2c(Nc3ccccc3C)sc(C(=O)c3ccccc3)c2N)cc1 -14.1%
O=C(NCC(c1ccc2c(c1)OCO2)N1CCN(c2ccccc2)CC1)c1ccccc1F (stereo unspecified) 3.94%
CC(=O)N1CCCc2cc(S(=O)(=O)N(C)CC(=O)Nc3ccc(F)cc3Cl)ccc21 -13.4%
CCc1nn(CC(=O)NC(C)C)c(=O)c2cc3cc(F)ccc3n12 -3.78%
CCOC(=O)c1ccc(OCC2c3cc(OC)c(OC)cc3CCN2C(=O)Cc2ccc(F)cc2)cc1 (stereo unspecified) -15.7%
Cc1ccc(Cl)cc1NC(=O)c1cnc(N2CCCCC2)c2ccccc12 3.37%
N#Cc1ccc(C(=O)Nc2cc3nn(-c4ccccc4)nc3cc2Cl)c(F)c1 -7.31%
